Source: the BET-seq Pho4 binding data (Le et al. 2018)
Some of the results follow. Values were computed here from the reads of four pooled replicates and scatter widely.

Molecular target: T1, Pho4 (S. cerevisiae) (UniProt P07270)
T1 sequence: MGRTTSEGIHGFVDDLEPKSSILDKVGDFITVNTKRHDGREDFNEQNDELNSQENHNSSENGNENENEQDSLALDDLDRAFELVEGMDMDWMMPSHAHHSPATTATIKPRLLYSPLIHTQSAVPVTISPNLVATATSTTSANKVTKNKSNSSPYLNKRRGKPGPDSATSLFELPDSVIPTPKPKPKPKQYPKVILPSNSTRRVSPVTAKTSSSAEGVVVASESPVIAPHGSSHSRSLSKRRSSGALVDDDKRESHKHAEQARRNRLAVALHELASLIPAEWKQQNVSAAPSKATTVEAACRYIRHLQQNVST
Experiment: relative binding free energy (BET-seq); higher = weaker binding
Conditions: reference: library average

| Sequence | relative binding free energy [kcal/mol] |
| --- | --- |
| TTCAGCACGTGTCGTT | 0.04 |
| TTTTGCACGTGAGTAA | 0.18 |
| TGACTCACGTGTTCGG | 0.21 |
| TATGACACGTGAGTGT | 0.12 |
| ATTAGCACGTGGGAGT | -0.11 |
| GGAGCCACGTGGGTGA | -0.15 |
| GGTGGCACGTGTCGTG | -0.08 |
| TAGGTCACGTGATATT | 0.24 |
| TTGGCCACGTGTGGTC | -0.05 |
| GGGCGCACGTGGATGG | -0.17 |
| AGTCTCACGTGTTTGG | 0.15 |
| GTTCTCACGTGGTTTG | 0.32 |
| TGGTTCACGTGCCAGT | 0.19 |
| AGGGCCACGTGAATTT | 0.31 |
| GTTAGCACGTGGATGA | -0.05 |
| GGTGTCACGTGGTAAC | 0.04 |
| TGCAGCACGTGAAAGG | 0.18 |
| TATTCCACGTGAGGTA | 0.24 |
| TCTAGCACGTGGTTAG | -0.12 |
| GCAGGCACGTGTCAGG | 0.04 |
| GAGGGCACGTGGAAAA | 0.18 |
| TATTTCACGTGGATCG | 0.37 |
| GATAACACGTGGGTTA | -0.02 |

| Sequence | relative binding free energy [kcal/mol] |
| --- | --- |
| GAGGACACGTGGTAAG | 0.26 |
| TATGTCACGTGGTTTG | 0.1 |
| CCGGGCACGTGGTAGG | -0.27 |
| TGCCGCACGTGTTTGG | -0.02 |
| TAGACCACGTGGTGTT | -0.03 |
| CCGTGCACGTGGGTAG | -0.08 |
| GTGGGCACGTGAATTT | 0.18 |
| CTATACACGTGGTGTT | -0.08 |
| ATGTACACGTGCGGGC | 0.11 |
| TGCGACACGTGGTAGG | -0.04 |
| TGTACCACGTGCGGGG | -0.26 |
| GTGAGCACGTGGGCTC | -0.1 |
| ATATGCACGTGTAAGG | 0.1 |
| CCGAGCACGTGGGGTG | -0.25 |
| GTGTTCACGTGATCTT | 0.33 |
| GAGGTCACGTGATATA | 0.21 |
| TCGGTCACGTGCTGTA | 0.1 |
| TTCTACACGTGTGGCG | 0.13 |
| TTGCACACGTGGTGGC | -0.01 |
| GGGCGCACGTGGTCTG | -0.09 |
| ATTGCCACGTGCTGGT | -0.14 |
| GGATCCACGTGTTTTT | 0.14 |
| TATCGCACGTGGATGT | -0.03 |

| Sequence | relative binding free energy [kcal/mol] |
| --- | --- |
| TTGTCCACGTGGTTGA | 0.06 |
| GGCTTCACGTGGAGGG | 0.3 |
| TGTGACACGTGTCGTG | -0.03 |
| AGGTACACGTGGTTTC | 0.05 |
| AGTGGCACGTGTGTTA | -0.01 |
| CGGGTCACGTGCAGGT | 0.11 |
| CGGTTCACGTGTGGCG | 0.27 |
| GAGCTCACGTGGGGTG | 0.01 |
| CATGGCACGTGCTTGG | -0.14 |
| GATGACACGTGTAATT | 0.17 |
| TAATGCACGTGTAAGG | 0.12 |
| GACGTCACGTGGGGCG | 0 |
| TGTGGCACGTGGCAGG | -0.07 |
| CTTGGCACGTGCCGGT | -0.19 |
| GGGGTCACGTGGGCGG | 0.03 |
| GGGGACACGTGAAGGT | 0.2 |
| TCTATCACGTGTTGAG | 0.2 |
| ATTTACACGTGAGGCA | 0.26 |
| TTGGGCACGTGAAGTC | 0.14 |
| GTCAGCACGTGTAGGA | -0.03 |
| TAAGCCACGTGTAGGG | 0.04 |
| AGGTGCACGTGGCATG | -0.19 |
| GCTCTCACGTGGGTTG | 0.11 |

| Sequence | relative binding free energy [kcal/mol] |
| --- | --- |
| TGTGACACGTGGATTT | -0.05 |
| AAAGGCACGTGGGCGA | -0.14 |
| TTCTGCACGTGAGTGG | 0.17 |
| TGTATCACGTGCTGAT | 0.1 |
| TCGGTCACGTGGGTCG | -0.14 |
| AGGGACACGTGGTCTG | -0.22 |
| TTTAACACGTGAGAAG | 0.34 |
| AGGTTCACGTGTGGTT | 0.3 |
| GTAAACACGTGGGATT | -0.06 |
| TTAAGCACGTGGCAGT | -0.1 |
| GCAGGCACGTGTGTTA | -0.13 |
| GGATACACGTGGAGGC | 0.09 |
| CTGGCCACGTGAGTTT | 0.31 |
| TTATGCACGTGCATGG | -0.12 |
| TTGTACACGTGTTTAT | 0.04 |
| AGTAACACGTGGGATA | -0.15 |
| ATTTACACGTGTGATA | 0.12 |
| TCTTTCACGTGGTAGC | 0.25 |
| CATAGCACGTGAGGGT | 0.11 |
| TGAATCACGTGGGTTG | 0.14 |
| TGATGCACGTGTCTTG | -0.07 |
| ACAGCCACGTGGGGTG | -0.23 |
| TTTGACACGTGTTTGA | 0.03 |

| Sequence | relative binding free energy [kcal/mol] |
| --- | --- |
| TGTCTCACGTGTTTAA | 0.26 |
| CGGGACACGTGGCGTG | -0.12 |
| TGTGGCACGTGAAAGG | 0.14 |
| GAATGCACGTGAGGCG | 0.21 |
| AAGGGCACGTGTCAAT | 0.04 |
| TGGCTCACGTGAATGT | 0.19 |
| CAATGCACGTGATGGG | 0.15 |
| GGGATCACGTGGATTA | 0.33 |
| GGTTTCACGTGCGTGA | 0.28 |
| TCTGCCACGTGGTTGT | 0 |
| TGGGGCACGTGTTACG | -0.15 |
| AGGCTCACGTGGGTAG | -0.02 |
| TAAATCACGTGGATGA | 0.16 |
| ATGAACACGTGAAGTT | 0.43 |
| ACTGTCACGTGTTTTA | 0.16 |
| TTATCCACGTGTGAGG | 0 |
| GTTTTCACGTGCTATA | 0.05 |
| AGGTGCACGTGACAGT | 0 |
| ATGTGCACGTGGGAAC | 0 |
| GTTGACACGTGCGCGG | -0.05 |
| ACGATCACGTGGGGGG | -0.06 |
| GAGGTCACGTGTATGA | 0.17 |
| GAGGGCACGTGTAGTG | 0 |
